In the supplement of paper PMC4723716:
Over roughly 3,600 compounds, “viability index relative to DMSO control” has its median near 0.81; the lowest 2% begin near 0.13. This is one part of the list.

system: Plasmodium falciparum NF54 stage V gametocytes; assay: viability index relative to DMSO control (fraction); higher = less gametocyte killing; conditions: 1.25 µM, incubation time: 72 h
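Note: 384-well serum-free SaLSSA: MitoTracker Red CMXRos staining with saponin lysis, high-content imaging, treated-well particle count divided by plate-mean count of DMSO wells.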

Row | SMILES | viability index
1 | CC(NS(=O)(=O)c1ccccc1)C(=O)NC1CCCC1 (configuration not stated) | 1.12
2 | Nc1ccc(-c2nc3cc(Cc4ccc5[nH]c(-c6ccc(N)cc6)nc5c4)ccc3[nH]2)cc1 | 0.192
3 | CC1CC(=Cc2ccncc2)C(=O)C(=Cc2ccncc2)C1 (configuration not stated) | 0.373
4 | COC(=O)C1=C(C)NC2=C(C(=O)CC(c3ccc(OC)cc3)C2)C1c1ccccc1F (configuration not stated) | 0.627
5 | COCCNC(=O)c1ccc2c(=O)n(Cc3ccc4c(c3)OCO4)c(=S)[nH]c2c1 | 0.455
6 | CCN1CCN(CC(O)COc2ccc(OC)cc2)CC1 (configuration not stated) | 0.798
7 | Cc1ccc(CNC(=O)c2cc(=O)[nH]c3ccc(S(=O)(=O)N4CCOCC4)cc23)cc1 | 0.831
8 | O=C(NCCc1ccccc1)C(=O)NN=Cc1ccccc1 | 0.753
9 | CCc1ccccc1NC(C)=O | 0.784
10 | COc1ccccc1C(c1c(C)n[nH]c1O)c1c(C)n[nH]c1O | 0.819
11 | Cc1oc2c(c1C(=O)N1CCCC1)C(=O)c1ccccc1C2=O | 0.583
12 | Fc1cccc(Nc2nc(NCC3CCCO3)c3ccccc3n2)c1 (configuration not stated) | 0.84
13 | CCOc1ccc(NC(=O)C2c3ccccc3C(=O)N(CC(C)C)C2c2cccs2)cc1 (configuration not stated) | 0.149
14 | CCC(C)C(=O)N1CCC(C(=O)Nc2ccc(-c3nc4ccccc4o3)cc2)CC1 (configuration not stated) | 0.798
15 | CCOc1ccc(-c2cc(C)[n+](CCO)c(-c3ccc(OCC)cc3)c2)cc1 | 0.807
16 | CCCc1nc2ccc(NC(=O)c3ccco3)cc2c(=O)n1Cc1ccc(-c2ccccc2)cc1 | 0.824
17 | COc1ccc(-n2nc(C(=O)NCC(=O)Nc3nc4ccccc4s3)c3ccccc3c2=O)cc1Cl | 0.952
18 | O=C(Nc1ccc(F)c(F)c1)c1ccccc1[N+](=O)[O-] | 1.03
19 | O=C(Nc1ccc(-c2nnc(-c3ccccc3)o2)cc1)c1ccc(Br)cc1 | 0.946
20 | O=C(c1ccc([N+](=O)[O-])o1)N1CCN(c2cccc(Cl)c2)CC1 | 0.468
21 | CCCCCOC(=O)C1=C(C)NC2=C(C(=O)CC(C)(C)C2)C1c1ccncc1 (configuration not stated) | 0.891
22 | COc1ccc2nc(NC(=N)N)nc(C)c2c1 | 1.14
23 | CC(=NNC(N)=S)C(C)=NNC(N)=S | 0.27
24 | CCn1cc(C(=O)NCCC2=CCCCC2)c(=O)c2cc(S(=O)(=O)N(C)C)ccc21 | 0.88
25 | Cc1ncc(CN2CCC(C(=O)Nc3ccc(-n4cccn4)cc3)CC2)s1 | 1.04
26 | Cc1c(C#N)c2ccccc2n1CC(=O)Nc1ccc(Br)cc1 | 0.322
27 | CN1C(=O)NC(c2cccnc2)C(C(=O)c2cccs2)C1(O)C(F)(F)F (configuration not stated) | 0.661
